What all share (experiment): cell count relative to DMSO control; melanoma cells; higher = more viable cells
Common to all, as to conditions: library dose: low library concentration; 72 h

In assay [1] the test system is WM115.
For assay [2], the system named is WM1716.
Assay [3] deals with WM1745.
For assay [4], the system named is WM3526.
Assay [5] relates to WM3619.
Assay [6] deals with WM451Lu.

22 molecules from the supplement of paper PMC4604168 (melanoma cell lines) can be followed below.

The other results are listed elsewhere or left out. Single values are uncertain, as repeats are few or missing.
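Note: cell number obtained by counting DAPI-stained nuclei in high-throughput microscope images with image analysis software, screen run in 1,536-well plates.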

For the molecule `C[As](C)SC[C@H](NC(=O)CC[C@H](N)C(=O)O)C(=O)NCC(=O)O` [Darinaparsin] + COc1cc(N2CCC(N3CCN(C)CC3)CC2)ccc1Nc1ncc(Cl)c(Nc2ccccc2S(=O)(=O)C(C)C)n1 [NVP-TAE684] (first compound 0.4 µM, partner dose 0.08 µM), the cell count came to 88.2% in assay [1]; 93.2% in assay [2]; 78.7% in assay [3]; 82.1% in assay [4]; 58.3% in assay [5]; 98.3% in assay [6].

Consider `C[C@]12O[C@H](C[C@]1(O)CO)n1c3ccccc3c3c4c(c5c6ccccc6n2c5c31)CNC4=O` [Lestaurtinib] + CCc1ccc(CCOc2ccc(CC3SC(=O)NC3=O)cc2)nc1 [pioglitazone] (first compound 0.004 µM, partner dose 2 µM), for which the cell count stood at 90.6% in assay [1]; 96.6% in assay [2]; 92% in assay [3]; 60.9% in assay [4]; 95.6% in assay [5]; 80.3% in assay [6].

In the case of `Cn1cc(C2=C(c3cn(C4CCN(Cc5ccccn5)CC4)c4ccccc34)C(=O)NC2=O)c2ccccc21` [Enzastaurin] + C=CCn1c(=O)c2cnc(Nc3ccc(N4CCN(C)CC4)cc3)nc2n1-c1cccc(C(C)(C)O)n1 [MK1775] (first compound 0.8 µM, partner dose 0.02 µM), the cell count was 93.7% in assay [1]; 86.3% in assay [2]; 49.5% in assay [3]; 89.7% in assay [4]; 48.1% in assay [5]; 114% in assay [6].

For `C[C@]12O[C@H](C[C@]1(O)CO)n1c3ccccc3c3c4c(c5c6ccccc6n2c5c31)CNC4=O` [Lestaurtinib] + Oc1nc(-c2ccc(C(F)(F)F)cc2)nc2c1CSCC2 [XAV939] (first compound 0.004 µM, partner dose 2 µM), the cell count in assay [1] came to 95.2%; in assay [2], 67.4%; in assay [3], 73.2%; in assay [4], 84.9%; in assay [5], 90.9%; in assay [6], 115%.

In the case of `Cn1cc(C2=C(c3cn(C4CCN(Cc5ccccn5)CC4)c4ccccc34)C(=O)NC2=O)c2ccccc21` [Enzastaurin] + CC1(C)NC(=O)N(c2ccc([N+](=O)[O-])c(C(F)(F)F)c2)C1=O [nilutamide] (first compound 0.8 µM, partner dose 1 µM), the cell count stood at 98.5% in assay [1]; 100% in assay [2]; 79.9% in assay [3]; 101% in assay [4]; 94.8% in assay [5]; 118% in assay [6].

With `N.N.[Cl][Pt][Cl]` [cisplatin] + C[C@@H](Oc1cc(-c2cnn(C3CCNCC3)c2)cnc1N)c1c(Cl)ccc(F)c1Cl [Crizotinib] (first compound 1.6 µM, partner dose 0.2 µM), the cell count in assay [1] was 98.5%; in assay [2] it was 114%; in assay [3], 102%; in assay [4] it was 103%; in assay [5], 129%; in assay [6], 89.8%.

With `C[C@]12O[C@H](C[C@]1(O)CO)n1c3ccccc3c3c4c(c5c6ccccc6n2c5c31)CNC4=O` [Lestaurtinib] + CN(NC(=O)CC(=O)NN(C)C(=S)c1ccccc1)C(=S)c1ccccc1 [STA4783] (first compound 0.004 µM, partner dose 0.006 µM), the cell count in assay [1] is 79.3%; in assay [2], 91.7%; in assay [3], 86.4%; in assay [4], 82.7%; in assay [5], 105%; in assay [6], 89.6%.

For the molecule `Cn1cc(C2=C(c3cn(C4CCN(Cc5ccccn5)CC4)c4ccccc34)C(=O)NC2=O)c2ccccc21` [Enzastaurin] + Oc1cc(-c2nc(-c3ccccc3)[nH]c2-c2ccncc2)ccc1Cl [L779450] (first compound 0.8 µM, partner dose 0.2 µM), the cell count in assay [1] was found to be 99.5%; in assay [2] it was 125%; in assay [3], 99.2%; in assay [4] it was 85%; in assay [5], 109%; in assay [6] it was 117%.

On to `N.N.[Cl][Pt][Cl]` [cisplatin] + O=C1NC(=O)/C(=C/c2ccc(-c3ccc(F)cc3O)o2)S1 [AS252424] (first compound 1.6 µM, partner dose 1 µM), for which the cell count in assay [1] is 101%; in assay [2], 99.2%; in assay [3] it was 88%; in assay [4], 85.3%; in assay [5] it was 117%; in assay [6], 81.6%.

Consider `C[C@]12O[C@H](C[C@]1(O)CO)n1c3ccccc3c3c4c(c5c6ccccc6n2c5c31)CNC4=O` [Lestaurtinib] + NC1(c2ccc(-c3nc4ccn5c(=O)[nH]nc5c4cc3-c3ccccc3)cc2)CCC1 [MK2206] (first compound 0.004 µM, partner dose 0.4 µM), for which the cell count in assay [1] stood at 88.9%; in assay [2] it was 89%; in assay [3] it was 85.8%; in assay [4], 63.2%; in assay [5] it was 77.8%; in assay [6], 98.6%.

With `C[C@]12O[C@H](C[C@]1(O)CO)n1c3ccccc3c3c4c(c5c6ccccc6n2c5c31)CNC4=O` [Lestaurtinib] + Nc1ccn([C@@H]2O[C@H](CO)[C@@H](O)C2(F)F)c(=O)n1 [gemcitabine] (first compound 0.004 µM, partner dose 0.0004 µM), the cell count in assay [1] came to 91.5%; in assay [2] it was 106%; in assay [3], 64%; in assay [4] it was 93.2%; in assay [5], 65.8%; in assay [6], 112%.

As for `C[C@]12O[C@H](C[C@]1(O)CO)n1c3ccccc3c3c4c(c5c6ccccc6n2c5c31)CNC4=O` [Lestaurtinib] + CN(C)S(=O)(=O)c1ccc2c(c1)/C(=C/c1cc3c([nH]1)CCCC3)C(=O)N2 [SU6656] (first compound 0.004 µM, partner dose 0.4 µM), the cell count in assay [1] was 67.9%; in assay [2], 107%; in assay [3], 83%; in assay [4], 70.1%; in assay [5] it was 102%; in assay [6] it was 111%.

Turning to `N.N.[Cl][Pt][Cl]` [cisplatin] + Nc1ccn([C@@H]2O[C@H](CO)[C@@H](O)C2(F)F)c(=O)n1 [gemcitabine] (first compound 1.6 µM, partner dose 0.0004 µM), the cell count came out at 114% in assay [1]; 98.7% in assay [2]; 100% in assay [3]; 120% in assay [4]; 94.9% in assay [5]; 98.9% in assay [6].

Regarding `Cn1cc(C2=C(c3cn(C4CCN(Cc5ccccn5)CC4)c4ccccc34)C(=O)NC2=O)c2ccccc21` [Enzastaurin] + C[C@@H](Oc1cc(-c2cnn(C3CCNCC3)c2)cnc1N)c1c(Cl)ccc(F)c1Cl [Crizotinib] (first compound 0.8 µM, partner dose 0.2 µM), the cell count in assay [1] turned out to be 115%; in assay [2], 97.2%; in assay [3] it was 103%; in assay [4], 109%; in assay [5] it was 105%; in assay [6] it was 99.1%.

Regarding `C[C@]12O[C@H](C[C@]1(O)CO)n1c3ccccc3c3c4c(c5c6ccccc6n2c5c31)CNC4=O` [Lestaurtinib] + CC(C)CCN1c2nc(Nc3cc(F)c(O)c(F)c3)ncc2N(C)C(=O)C1C [BID1870] (first compound 0.004 µM, partner dose 0.2 µM), the cell count in assay [1] was determined as 90.3%; in assay [2] it was 111%; in assay [3], 106%; in assay [4] it was 104%; in assay [5], 108%; in assay [6] it was 89.1%.

As for `C[C@]12O[C@H](C[C@]1(O)CO)n1c3ccccc3c3c4c(c5c6ccccc6n2c5c31)CNC4=O` [Lestaurtinib] + CCN(CC)CCCCNc1ncc2cc(-c3cc(OC)cc(OC)c3)c(NC(=O)NC(C)(C)C)nc2n1 [PD173074] (first compound 0.004 µM, partner dose 0.1 µM), the cell count was determined as 107% in assay [1]; 94.3% in assay [2]; 83.2% in assay [3]; 75.4% in assay [4]; 96% in assay [5]; 113% in assay [6].

Regarding `C[As](C)SC[C@H](NC(=O)CC[C@H](N)C(=O)O)C(=O)NCC(=O)O` [Darinaparsin] + O=C(O)C(=O)Nc1sc2c(c1C(=O)O)CCNC2 [TCS401] (first compound 0.4 µM, partner dose 1.66667 µM), the cell count in assay [1] is 94.3%; in assay [2], 101%; in assay [3] it was 94.4%; in assay [4], 99.3%; in assay [5], 84.2%; in assay [6], 139%.

Consider `C[C@]12O[C@H](C[C@]1(O)CO)n1c3ccccc3c3c4c(c5c6ccccc6n2c5c31)CNC4=O` [Lestaurtinib] + Cc1ccc(NC(=O)c2cccc(N(C)C)c2)cc1NC(=O)c1ccc(O)cc1 [ZM336372] (first compound 0.004 µM, partner dose 2 µM), for which the cell count in assay [1] is 107%; in assay [2], 115%; in assay [3] it was 99.6%; in assay [4] it was 66.1%; in assay [5] it was 98.2%; in assay [6] it was 86.1%.

Regarding `C[As](C)SC[C@H](NC(=O)CC[C@H](N)C(=O)O)C(=O)NCC(=O)O` [Darinaparsin] + Cc1cc(SCc2sc(-c3ccc(C(F)(F)F)c(F)c3)nc2C)ccc1OCC(=O)O [GW0742] (first compound 0.4 µM, partner dose 2 µM), the cell count was 115% in assay [1]; 98% in assay [2]; 92.9% in assay [3]; 145% in assay [4]; 117% in assay [5]; 98.2% in assay [6].

Regarding `C[C@]12O[C@H](C[C@]1(O)CO)n1c3ccccc3c3c4c(c5c6ccccc6n2c5c31)CNC4=O` [Lestaurtinib] + O=c1cc(-c2cccc3c2Sc2ccccc2S3)oc(N2CCOCC2)c1 [KU55933] (first compound 0.004 µM, partner dose 1 µM), the cell count in assay [1] is 94%; in assay [2], 117%; in assay [3], 90.4%; in assay [4] it was 83%; in assay [5], 108%; in assay [6] it was 90.3%.

As for `Cn1cc(C2=C(c3cn(C4CCN(Cc5ccccn5)CC4)c4ccccc34)C(=O)NC2=O)c2ccccc21` [Enzastaurin] + Cc1cc(N2CCOCC2)cc2[nH]c(-c3c(NC[C@@H](O)c4cccc(Cl)c4)cc[nH]c3=O)nc12 [BMS536924] (first compound 0.8 µM, partner dose 0.2 µM), the cell count in assay [1] is 118%; in assay [2], 108%; in assay [3], 75.8%; in assay [4] it was 96.5%; in assay [5], 94%; in assay [6], 115%.

`C[As](C)SC[C@H](NC(=O)CC[C@H](N)C(=O)O)C(=O)NCC(=O)O` [Darinaparsin] + COc1ccc(COc2ccc(Cc3cnc(N)nc3N)cc2OC)cc1 [GW2580] (first compound 0.4 µM, partner dose 1 µM): the cell count in assay [1] is 93.1%; in assay [2], 90.7%; in assay [3], 82.6%; in assay [4] it was 109%; in assay [5], 104%; in assay [6], 109%.
